Among all 310,000 compounds or so, about 11,000 (3.5%) were called active. This list was built around the results that the source calls inconclusive (neither active nor inactive); the mix of calls is not that of the screen. The call rests on the fitted dose curve; in most records, active means well fitted inhibition curve with a large enough effect; inconclusive means small, poorly fitted or top-dose-only effect, or effect the other way; inactive means flat fitted curve, though single readings scatter. No potency is given beside an inconclusive call; the fits are too rough.
Experiment: VP16 counterscreen qHTS for inhibitors of ROR gamma transcriptional activity;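 further: Gal4-VP16 expression switched on by copper sulfate through the metallothionein promoter; nearly all actives have a fitted effect of over 50% in size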
Details: Drosophila S2 Gal4-VP16 UAS-luciferase, luminescence, 20 h; series mostly up to 53.6 µM
Potency means the concentration at half of the fitted maximal effect; tags describe the fitted curve by direction and shape.

SMILES	Potency
O=C(O)c1cccc(-n2cc(-c3cccc(C(F)(F)F)c3)cn2)c1	inconclusive [inhibitor, full curve]
CCNc1nc(N)nc(-c2cc(Cl)ccc2O)n1	inconclusive [inhibitor, single point]
CCC(C(=O)C(C)C(O)C(C)CCc1ccc(C)c(O)c1C(=O)O)C1OC(CC)(C2CC[C@@](O)(CC)C(C)O2)CC1C (some centres undefined)	active: 10 µM
CCCc1[nH]nc2c1C(c1ccc(Br)s1)C(C#N)=C(N)O2 (centres undefined)	inconclusive [inhibitor, single point]
CS(=O)(=O)/C(C#N)=C/c1c(-c2ccccc2)nc2n1CCS2	inactive
O=C(/C=C/c1cc(Br)ccc1O)c1ccco1	inconclusive [inhibitor, single point]
C/C(=N\NC(=O)CSCc1ccc(Cl)cc1)c1ccc2c(c1)OCCO2	inconclusive [inhibitor, partial curve]
Cc1ccccc1-n1c2nc(=O)n(C)c(=O)c-2cc2ccccc21	inactive
CC(NC(=O)/C=C/c1ccco1)c1nc2ccccc2n1Cc1c(Cl)cccc1Cl (centres undefined)	inconclusive [inhibitor, single point]
CCN(c1ccccc1)S(=O)(=O)c1ccc(Cl)c(NC(=O)COC(=O)c2ccc(O)cc2)c1	inconclusive [inhibitor, single point]
O=C(Nc1nnc(-c2ccccc2)o1)c1cccc(N2C(=O)CCC2=O)c1	active: 4.47 µM
Cc1ccc(OCc2nc(-c3ccccn3)n[nH]2)cc1	active: 5.01 µM
CN(C)c1cccc(C(=O)OCCNC(=O)c2cccc(S(=O)(=O)N3CCOCC3)c2)c1	inconclusive [inhibitor, single point]
Cc1ccccc1NC(=O)c1cc2c(=O)n3cccc(C)c3nc2s1	inactive
Cc1ccc(NC(=O)CSc2nnc(-c3ccncc3)n2N)cc1C	inactive
O=C(CNC(=O)c1ccccc1)OCc1ccc([N+](=O)[O-])cc1	inconclusive [inhibitor, full curve, poor fit]
CCCn1c(CN(C)Cc2ccccc2)nc2c1c(=O)n(C)c(=O)n2C	inconclusive [inhibitor, single point]
COc1ccccc1Oc1ccc2c(c1)C(=O)N(c1cccc(O)c1)C2=O	inconclusive [inhibitor, single point]
O=C(COc1cccc2ccccc12)Nc1cc(Cl)ccc1C(=O)O	inconclusive [inhibitor, single point]
